PubChem BioAssay AID493208 (National Center for Advancing Translational Sciences (NCATS), 2011)
Hit rate of the full screen: of about 44,000 compounds, about 340 (0.77%) were called active. Inconclusive results (about 5%) are left out. Calls follow the shape of the dose curve; as a rule, active = well fitted inhibition curve with a large enough effect; inconclusive = small, poorly fitted or top-dose-only effect; inactive = flat fitted curve, though single readings scatter. The list shows a part of the results.

Experiment: Acumen qHTS Assay for Inhibitors of the mTORC1 Signaling Pathway in MEF (Tsc2-/-, p53-/-) Cells: Sytravon;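 also: plate controls were DMSO for no effect and rapamycin for full effect; nearly all actives have a fitted effect of over 50% in size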
Conditions: phospho-rpS6 immunofluorescence/PI, 24 h; series mostly up to 38.3 µM; activity change, negative = inhibition: at the top concentration
Procedure, shortened: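 Cell-based qHTS: Tsc2-/- p53-/- MEF, 24 h cpd, 37 °C; fix/perm, anti-phospho-S6 Alexa-488 + PI; Acumen 488 nm scan; pS6/PI ratio, % positive cells; rapamycin 7.5 nM = inhibition ref; PI count = viability.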

SMILES | activity change, negative = inhibition
COCCCNc1ncnc2c1c(-c1ccccc1)cn2-c1ccc(C)c(Cl)c1 | inactive: 7.37%
COc1ccc2c(c1)c1c(c(=O)n(-c3ccccc3C)c(=O)n1Cc1ccccc1C)n2C | inactive: 0%
COc1ccc(OC)c(NC(=O)CN2C(=O)CC(c3ccco3)Sc3ccccc32)c1 (centres undefined) | inactive: -13%
O=C(COc1ccc(Cl)cc1)Nc1cc(-c2ccccc2)no1 | inactive: 1.05%
COc1ccc(CNC(=O)c2cc3ccccn3n2)c(OC)c1 | inactive: -3.86%
CCCCOc1ccc(CNC(=O)Cn2ncn3c(cc4cc(F)ccc43)c2=O)cc1 | inactive: 2.29%
Cn1nc(C(=O)N2CCN(c3ccccc3)CC2)c2c1-c1ccccc1SC2 | inactive: 2.48%
O=C(c1ccc2c(c1)OCO2)c1cn(Cc2ccc(F)cc2)c2ccccc2c1=O | inactive: -6.11%
CCCCN(CC)C(=O)Cn1c(=O)n(-c2ccc(OCC)cc2)c(=O)c2c3c(sc21)CCC3 | inactive: 9.36%
CCCOC(=O)c1c(NC(=O)c2nc3ncccn3n2)sc(C(=O)OCC)c1C | inactive: 0.403%
CC(=O)c1cccc(-n2c(=O)c3c4c(sc3n(Cc3ccccc3Cl)c2=O)CN(C(C)=O)CC4)c1 | inactive: -1.98%
Cc1ccc(C2CCN(C(=O)c3cnn(-c4ccccc4Cl)c3C3CCN(C(=O)OC(C)(C)C)CC3)C2)cc1 (centres undefined) | inactive: -7.49%
COc1cc(OC)c(C2C=C(C(=O)O)Nc3ncnn32)cc1OC (centres undefined) | inactive: 2.16%
COc1ccccc1CNC(=O)c1cn(C)c2ccc(S(=O)(=O)N3CCC(C)CC3)cc2c1=O | inactive: -2.84%
Cc1c(F)cccc1NC(=O)C1CCCN1S(=O)(=O)c1ccc(F)cc1 (centres undefined) | inactive: -12.1%
Cc1ccc(C(=O)Nc2cccc(C(=O)OCc3cc(=O)n4c5c(sc4n3)CCCC5)c2)cc1 | inactive: 0%
Cc1ccc(NC(=O)C2CCCN(S(=O)(=O)c3cccc4cccnc34)C2)cc1Cl (centres undefined) | inactive: 0.743%
Cc1ccc2[nH]cc(C(c3ccccc3)c3cccs3)c2c1 (centres undefined) | inactive: 3.6%
COc1cc(OC)c(NC(=O)c2ccc3nc(C(C)C)oc3c2)cc1Cl | inactive: 3.12%
Cc1ccc(C)c(NC(=O)N2CC=C(c3c[nH]c4ccccc34)CC2)c1 | inactive: -14.3%
Cc1cc(C)c(NC(=O)CSc2nc(C)cc(C)c2C#N)c(C)c1 | inactive: 5.08%
Cc1cccc(N(C)C(=O)C(Cc2ccccc2)NS(=O)(=O)c2cccc3nsnc23)c1 (centres undefined) | inactive: -14.3%
O=C(CN1Cc2ccccc2C1=O)Nc1cc(F)ccc1F | inactive: 1.16%
COc1ccc(Nc2ccc3cc(S(=O)(=O)N4CCCC4)ccc3n2)cc1Cl | inactive: -14.6%

SMILES | activity change, negative = inhibition
COc1ccccc1OCC(=O)N(Cc1ccc(N(C)C)cc1)CC1CCCO1 (centres undefined) | inactive: -3.69%
Cc1ccc2oc(=O)c3cnn(CC(=O)N(C)c4ccc(F)cc4)c3c2c1 | inactive: -2.08%
CC(=O)c1ccc(NC(=O)C2CCN(S(=O)(=O)c3ccc4c(c3)CCCN4C(=O)C3CCC3)CC2)cc1 | inactive: 0.816%
CCOc1ccc(-n2c(SCC(=O)Nc3ccccc3OC)nc3c(oc4ccccc43)c2=O)cc1 | inactive: 2.49%
CCCSc1nc(=O)c2c(n1C)NC(=O)CC2c1cccc(F)c1F (centres undefined) | inactive: -0.298%
O=C(Cn1c(-c2cccs2)cc2cc(Cl)ccc21)NCc1ccccc1 | inactive: -12.7%
COc1ccc(N2CCN(C(=O)Cc3c(C(=O)O)c(C)cn3C)CC2)cc1 | inactive: -0.0959%
CCOC(=O)c1c(NC(=O)CCCOc2ccc(C(C)(C)C)cc2)sc2c1CCC2 | inactive: 15.2%
COc1ccc(-n2nc3ccc(NC(=O)COc4ccc(C)c(C)c4)cc3n2)cc1 | inactive: 5.7%
CCc1ccccc1NC(=O)CN(Cc1ccccc1)S(=O)(=O)c1ccc2nc(C)sc2c1 | inactive: -3.43%
Cc1cccc(NC(=O)Cn2cc(S(=O)(=O)c3ccc(F)cc3)c(=O)c3cc4c(cc32)OCO4)c1 | inactive: 0.35%
CCc1cc(C(=O)Nc2cnn(Cc3ccc(F)cc3)c2)no1 | inactive: 1.06%
CC(=O)c1cccc(NC(=O)c2cnn(-c3cccc(C)c3)c2-n2cccc2)c1 | inactive: -9.26%
Cc1ccc(-c2c(C(=O)N3CCN(c4cccc(C)c4C)CC3)oc(=O)c3ccccc23)cc1 | inactive: -5.44%
CCC(=O)N1CCc2cc(Br)cc(S(=O)(=O)NCCc3ccccc3Cl)c21 | inactive: 2.28%
COc1ccc(OC)c(CCNC(=O)c2cc3c(-c4ccccc4F)nn(C)c3s2)c1 | inactive: 0.716%
COc1ccc(C)cc1NS(=O)(=O)c1ccc2c(c1)[C@H]1C=CC[C@H]1[C@@H](c1cccc(Cl)c1)N2 | inactive: -13.4%
CCOc1cc(C(=O)Nc2ccc3oc(-c4ccc(CC)cc4)nc3c2)cc(OCC)c1OCC | inactive: 9.61%
COc1ccccc1CCNC(=O)CCn1c(=O)c2cccn2c2ccc(F)cc21 | inactive: 6.24%
Cc1cc(C)cc(NC(=O)CSCn2nnc3c(=O)[nH]c(Cc4ccc(F)cc4)nc32)c1 | inactive: 6.87%
COc1ccc(CCNC(=O)CCc2c(C)nc3cc(-c4ccccc4)nn3c2C)cc1OC | inactive: 0.818%
Cc1noc(/C=C/c2ccco2)c1S(=O)(=O)N1CCC(C(=O)Nc2ccc(F)cc2F)CC1 | inactive: -0.718%
CCCCN(Cc1ccccc1)C(=O)CN(C)S(=O)(=O)c1ccc2c(c1)c(=O)n(C)c(=O)n2C | inactive: -0.635%
Cc1ccc(OCC(=O)Nc2ccc3nc(SCc4ccccc4)sc3c2)cc1 | inactive: -1.95%

SMILES | activity change, negative = inhibition
CCc1cc2c(cc3c(=O)n(CCCC(=O)NCc4ccccc4Cl)nc(CC)n32)s1 | inactive: -9.19%
Cc1cccc(OCc2ccc(-c3nc(C#N)c(N4CCC(C(N)=O)CC4)o3)o2)c1 | inactive: -4.79%
CCOC(=O)c1cccc(NC(=O)Cn2c(=O)nc(-c3ccccc3)c3ccccc32)c1 | inactive: 0%
O=C(Nc1cc(C(F)(F)F)ccc1Cl)c1cc(S(=O)(=O)NCc2ccccc2)ccc1F | inactive: -10.4%
CCOC(=O)c1cccc(NC(=O)CC2C(=O)N(c3ccc(F)cc3)C(=O)N2C(C)C)c1 (centres undefined) | inactive: -2.12%
COCCCNC(=O)CC(c1cc(OC)c(OC)c(OC)c1)N1Cc2ccccc2C1=O (centres undefined) | inactive: -2.44%
COc1ccc(NC(=O)C(Cc2ccccc2)NS(=O)(=O)c2ccc(Br)s2)cc1OC (centres undefined) | inactive: -18.2%
CCOC(=O)c1c(C)[nH]c(C)c1S(=O)(=O)NCC(=O)Nc1cc(Cl)ccc1OC | inactive: 3.89%
CC(=O)c1ccc(NC(=O)COc2ccccc2-c2nc(C(C)C)no2)cc1 | inactive: -3.2%
CCOC(=O)C1CCN(S(=O)(=O)c2cc(-c3cc(C)no3)ccc2OC)CC1 | inactive: 0%
O=C(COc1ccccc1)Nc1nnc2n1CCS2 | inactive: 7.52%
Cc1ccc(NC(=O)C(Cc2ccccc2)NS(=O)(=O)c2ccc3c(c2)oc(=O)n3C)cc1C (centres undefined) | inactive: -10.2%
CC(C)(C)C(=O)Cn1c(=O)n(CCCCCC(=O)NCc2ccccc2Cl)c(=O)c2sccc21 | inactive: 1.74%
COc1cc(OC)cc(-c2nc3nc(C)c(CCC(=O)Nc4ccccc4)c(C)n3n2)c1 | inactive: 2.09%
CC(=O)c1ccc(N2CCN(C(=O)Nc3cn(CC(C)C)c(=O)c4ccccc34)CC2)cc1 | inactive: 0.638%
Cc1ccc(C)c(NC(=O)CSc2nnc(NC(=O)Nc3ccccc3)s2)c1 | inactive: 0.166%
O=C(CSc1nc(-c2ccco2)nc2cc(=O)[nH]n12)Nc1ccc(F)cc1 | inactive: -3.6%
COc1ccc(C2CC(=O)Nc3cc4c(cc32)OCO4)c(OC)c1 (centres undefined) | inactive: -20.7%
CCN1CCN(Cc2nc3cc(NC(=O)c4cccc([N+](=O)[O-])c4)ccc3n2CC)CC1 | inactive: -0.298%
CCc1ccc(NC(=O)Cn2c(C(=O)OC)cc3oc(C)cc32)cc1 | inactive: -0.441%
CCOC(=O)N1CCC(NC(=O)c2ccc3c(c2)N(Cc2ccc(F)cc2)C(=O)c2ccccc2S3=O)CC1 (centres undefined) | inactive: -1.33%
COc1ccc(CCNC(=O)c2nc(SCc3ccc(F)cc3)ncc2Cl)cc1OC | inactive: -1.03%
CCc1ccc(C2CC(=O)c3c([nH]c(C(=O)OC4CCCCCC4)c3C)C2)cc1 (centres undefined) | inactive: -19.5%
COc1ccc(NC(=O)CN2CCN(C3CCCCC3)C(=O)C2=O)cc1 | inactive: 19.8%

SMILES | activity change, negative = inhibition
Cc1ccc(CCNC(=O)C(C)n2nc(C)c3c(C)n(-c4ccc(C)cc4)nc3c2=O)cc1 (centres undefined) | inactive: -22.1%
CCCCCCC(=O)Nc1cc2nc3c(nc2cc1C)c(=O)n(C)c(=O)n3C | inactive: 0.754%
CCOC(=O)c1c(-c2ccc(Br)cc2)csc1NC(=O)c1ccc(C(C)(C)C)cc1 | inactive: 2.24%
COc1ccc(CNC(=O)C2CCCN(C(=O)c3cnn(-c4ccc(F)cc4)c3-n3cccc3)C2)cc1 (centres undefined) | inactive: -1.9%
CC1CCCCN1Cc1c(O)ccc2c(=O)c(-c3ccc(Cl)cc3)coc12 (centres undefined) | inactive: -1.64%
Cc1ccc(CNC(=O)c2cc(=O)c3cc(C)c(C)cc3o2)cc1 | inactive: -2.99%
CCOc1ccc(CC(=O)NCCc2sc(-c3cccc(F)c3)nc2C)cc1 | inactive: -9.35%
O=C(NCCS(=O)(=O)N1CCN(c2ccc(F)cc2)CC1)c1ccccc1Br | inactive: -2.83%
CCOc1cccc2sc(NC(=O)c3ccc(S(=O)(=O)N4CCCCC4)cc3)nc12 | inactive: 11.2%
COc1ccc(NC(=O)c2cc(=O)c3cc(C)cc(C)c3o2)cc1 | inactive: 4.18%
CC(CNc1nc2ccccc2c2nc(-c3ccccc3)nn12)c1ccccc1 (centres undefined) | inactive: -2.87%
CC(=O)Nc1cccc(NC(=O)CSc2cn(CC(=O)N3CCCC3)c3ccccc23)c1 | inactive: 0.203%
COc1ccc(NC(=O)c2cc3c(=O)n(C)c4cc(Cl)ccc4c3s2)cc1Cl | inactive: 0.441%
CC1CCN(S(=O)(=O)c2ccc3c(ccc(=O)n3CC(=O)NCc3ccccc3)c2)CC1 | inactive: -4.26%
CCCS(=O)(=O)c1nc(S(=O)(=O)c2ccc(C)cc2)c(NCC(C)C)s1 | inactive: -0.318%
Cc1ccc(CCNC(=O)c2oc(=O)c3ccccc3c2-c2ccc(C)cc2)cc1 | inactive: -0.205%
CCC(=O)Nc1ccc(C)cc1-c1nc2ccccc2n(CC(=O)c2ccc(C)cc2)c1=O | inactive: -0.098%
CC(C)(C)OC(=O)N1CCC(c2c(C(=O)NCc3ccco3)cnn2-c2ccc(F)cc2F)CC1 | inactive: -12.6%
Cc1noc2ncnc(N3CCCC(C(=O)Nc4cc(F)ccc4F)C3)c12 (centres undefined) | inactive: -21.1%
CCCCNC(=O)Cn1c(=O)cc(C)c2c(C)nn(-c3cccc(Cl)c3C)c21 | inactive: -2.96%
CCc1ccc(-n2c(=O)c3c(C)c(C(=O)N(C)C)sc3n(CC(=O)Nc3cc(Cl)ccc3C)c2=O)cc1 | inactive: -5.57%
CCOC(=O)c1c(C)c(C(=O)NCc2ccc(Cl)cc2)c(C)n1C | inactive: -0.852%
